# Experimental data reported in PubChem BioAssay AID488969 (Vanderbilt High Throughput Screening Facility, 2010).
# Over roughly 110,000 compounds, “z-score” has its median near -0.1; the highest 2% begin near 2. This is one part of the list.
# Molecular target: Metabotropic glutamate receptor 8 (Rattus norvegicus) (UniProt P70579)
# Assay: mGluR8 Gi/Go-coupled signaling modulation – cell-based, rat, thallium flux, HTS, primary screen (AID 488969)
# Conditions: HEK293 rat mGluR8, GIRK (G protein-gated inwardly rectifying potassium channel) thallium flux, FluoZin2; at 10 µM; stronger effect = higher value; submaximal glutamate (EC20) added with thallium
# Sequence of UniProt P70579 (P70579 whole entry, looked up): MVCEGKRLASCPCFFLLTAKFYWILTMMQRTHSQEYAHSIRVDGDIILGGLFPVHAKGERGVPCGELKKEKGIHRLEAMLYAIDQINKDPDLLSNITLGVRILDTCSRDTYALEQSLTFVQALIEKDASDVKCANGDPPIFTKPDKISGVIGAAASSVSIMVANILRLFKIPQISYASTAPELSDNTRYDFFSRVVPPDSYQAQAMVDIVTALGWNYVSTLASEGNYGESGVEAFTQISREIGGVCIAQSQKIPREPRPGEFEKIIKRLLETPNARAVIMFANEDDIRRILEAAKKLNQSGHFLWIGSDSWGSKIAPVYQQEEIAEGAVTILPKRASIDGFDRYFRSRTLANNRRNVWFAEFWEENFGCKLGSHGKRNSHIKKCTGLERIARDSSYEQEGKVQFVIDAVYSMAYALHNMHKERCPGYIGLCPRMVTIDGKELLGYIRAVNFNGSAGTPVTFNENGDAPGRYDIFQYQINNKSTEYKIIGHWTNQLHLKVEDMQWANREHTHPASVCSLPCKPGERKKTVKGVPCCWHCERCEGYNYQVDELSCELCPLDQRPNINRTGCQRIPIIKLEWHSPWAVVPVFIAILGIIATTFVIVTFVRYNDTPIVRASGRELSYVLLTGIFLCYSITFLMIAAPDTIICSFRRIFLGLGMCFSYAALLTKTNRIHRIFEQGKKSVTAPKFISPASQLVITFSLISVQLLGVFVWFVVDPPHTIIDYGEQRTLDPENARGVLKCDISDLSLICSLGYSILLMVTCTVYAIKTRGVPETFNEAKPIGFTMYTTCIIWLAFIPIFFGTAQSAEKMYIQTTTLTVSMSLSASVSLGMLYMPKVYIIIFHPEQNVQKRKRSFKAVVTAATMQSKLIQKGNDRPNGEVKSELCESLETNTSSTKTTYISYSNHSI
row,SMILES,z-score
1,CN1CCC2(CC1)NC(=O)NC2=O,0.434
2,Cc1cc2cc(C)c3nnc(SCC(=O)N4CCCc5ccccc54)n3c2cc1C,-0.363
3,C(=C\c1ccccc1)/C=N/Nc1nncc(-c2ccccc2)n1,-0.159
4,Cc1cc(NC(=O)COc2cccc3cccnc23)no1,0.0409
5,CC(=O)n1c2ccccc2c2nc(NC(C)C)sc21,-0.00924
6,COCC(C)NCC(=O)NC(C)CCc1ccccc1 (centres undefined),-0.158
7,COc1ccc(C2CC(c3ccccc3)=NN2C(=O)COC(=O)c2ccc(Cl)nc2)cc1 (centres undefined),-0.13
8,CCOc1ccccc1NC(=O)C1C2C=CC(O2)C1C(=O)O (centres undefined),0.111
9,COC(=O)C1CSC(C(=O)OC)N1C(=O)Nc1ccc(Cl)cc1 (centres undefined),-0.0983
10,c1ccc(-c2nnc(SCc3nnc(-c4cccs4)o3)o2)cc1,0.0584
11,Cc1ncc(CSc2nnnn2-c2ccccc2)c(N)n1,-0.102
12,Cc1ccc(-c2csc3ncnc(-n4nc(C)cc4N)c23)cc1,0.274
13,CN(C)/C=C/c1c(C#N)c(=O)ncn1Cc1ccccc1,-0.0983
14,COc1ccc(OC)c(C(=O)CN2C(=O)NC(C)(c3ccccc3)C2=O)c1 (centres undefined),-0.0909
15,Cc1ccc(NC(=O)CCC(=O)NNC(=O)COc2cccc3ccccc23)c(C)c1,-0.075
16,CC(=O)c1ccc(-c2nc3ccccc3n2C)o1,0.227
17,CCc1ccc(Nc2ncc3c(n2)CC(c2ccco2)CC3=O)cc1 (centres undefined),0.0155
18,O=C1CC(SCCO)C(=O)N1c1ccccc1 (centres undefined),-0.172
19,CCSc1nc(-c2ccc(OC)cc2)n(-c2nc3ccccc3s2)n1,0.0304
20,CCOC(=O)c1nnn(-c2nonc2N)c1COc1c(C=O)cccc1OC,-0.306
21,CC(NC(=O)c1ccnc(C(C)(C)C)c1)c1ccccc1 (centres undefined),0.264
22,CCC(O)CNc1nc(-n2nc(C)cc2C)nc2sc3c(c12)CC(C)(C)OC3 (centres undefined),-0.647

row,SMILES,z-score
1,O=C1CCCc2c1nc(-c1cccc(Cl)c1)n2O,0.253
2,COc1ccc(/C=N/Nc2nc3ccccc3o2)cc1O,-0.22
3,Cc1ccc(C(=O)C2C(c3cccs3)NC(=O)NC2(O)C(F)(F)F)cc1 (centres undefined),2.58
4,COCCCNC(=O)CN(C1CCCCC1)S(=O)(=O)c1ccc(C)cc1,-0.241
5,COC(=O)COc1ccc(S(=O)(=O)NCC2CCCO2)cc1Cl (centres undefined),0.0397
6,COC(=O)C1=C(C)NC(=O)/C1=C\c1cc(C)n(-c2ccccc2C)c1C,-0.534
7,O=C1NC(c2ccccc2)=C(c2nc3ccccc3s2)C(c2ccc(O)cc2)N1 (centres undefined),-0.302
8,O=C(Cn1cc(C(=O)C2CC2)c2ccccc21)NCC1CCCO1 (centres undefined),0.00737
9,CC1CCCCN1S(=O)(=O)c1ccc2c(c1)CCN2C(=O)CCC(=O)O (centres undefined),-0.0502
10,COc1ccc(N2C(=O)C3CCCN3C2c2ccccc2Cl)cc1 (centres undefined),0.523
11,O=C(CNC(=O)C1CCCCC1)Nc1cc(Cl)cc(Cl)c1,-0.0705
12,Cc1ccc(Nc2nnc(SCC(=O)NC3CCCc4ccccc43)s2)cc1 (centres undefined),-0.0123
13,CCOC(=O)N1CCN(c2cc3[nH]c(=S)[nH]c3cc2F)CC1,-0.482
14,CCOC(=O)c1[nH]c(C)c(C(=O)NC2CCCC2)c1C,-0.06
15,COc1ccc(S(=O)(=O)N(CC(=O)NC2CC2)C2CCCCC2)cc1Cl,0.306
16,COc1cccc(C(=O)N2CCN(Cc3ccccc3C(F)(F)F)CC2)c1,-0.679
17,CCC1=NN(C(=O)C(=O)Nc2ccc(OC)cc2)C(O)(C(F)(F)F)C1 (centres undefined),0.332
18,CCCn1c(C(Cc2ccccc2)NC(=O)COC)nc2ccccc21 (centres undefined),1.28
19,O=C(OC(C(=O)Nc1ccc(Cl)cc1C(F)(F)F)c1ccccc1)C1=COCCO1 (centres undefined),-0.376
20,O=C(NCc1ccc2c(c1)OCO2)c1cc2ccccc2oc1=O,0.0584
21,O=C(Cc1ccccc1)n1nc(-c2ccco2)nc1SCc1ccccc1,-0.336
22,CCCc1nnc(NC(=O)CCC(=O)N2CCN(C3c4ccccc4-c4ccccc43)CC2)s1,-0.25

row,SMILES,z-score
1,Cc1ccc(S(=O)(=O)N2Cc3ccccc3CC2C(=O)Nn2cnnc2)cc1 (centres undefined),-0.114
2,CCC(CC)C(=O)Nc1cccc(C(=O)Nc2ccc(S(=O)(=O)Nc3ccc(C)cc3)cc2)c1,-0.0821
3,CC1CCN(S(=O)(=O)c2ccc(F)c(C(=O)O)c2)CC1,0.0267
4,O=C(Nc1cccc(F)c1)c1ccc(S(=O)(=O)NCC2CCCO2)cc1 (centres undefined),0.85
5,COc1cc2c(cc1NC(=S)Nc1cccc(C(F)(F)F)c1)oc1ccccc12,0.167
6,COc1cccc(C(c2nnnn2Cc2ccccc2)N2CCN(C(=O)c3ccco3)CC2)c1OC (centres undefined),-0.14
7,Cc1ccc(NC(=O)CS(=O)CC(=O)NCCCN(C)c2ccccc2)cc1 (centres undefined),0.0777
8,CC(C)Oc1ccc(C(=O)NC2(C(F)(F)F)N=C3SCCN3C2=O)cc1 (centres undefined),0.873
9,COc1cccc(-c2nc(NCCN3CCOCC3)c3ccccc3n2)c1O,-0.217
10,Cc1cc(C)c(S(=O)(=O)Nc2c(C)[nH]c(=O)[nH]c2=O)c(C)c1,-0.173
11,COC(=O)c1ccc(S(=O)(=O)N2C3CCC2CC(NC(=O)C2CC2)C3)cc1 (centres undefined),0.255
12,Cc1ccc(NC(=O)c2ccc(OC(=O)COc3ccc(Cl)c(C)c3)cc2)cc1,-0.0429
13,CCOC(=O)c1cccc(NC(=O)CNS(=O)(=O)c2cccs2)c1,-0.433
14,O=C(O)c1cc([N+](=O)[O-])ccc1N1CCCCC1,-0.123
15,Cc1ccc(-c2cc(C(=O)N/N=C/c3c(C)nn(C)c3C)c3ccccc3n2)c(C)c1,-1.46
16,O=C(NC(=S)NCC1CCCO1)c1ccc(Cl)cc1Cl (centres undefined),-0.218
17,COc1ccc(-c2csc(Nc3ccc(S(N)(=O)=O)cc3)n2)cc1,-0.213
18,COc1ccc2c(c1OC)C(=O)OC2Nc1ncc(Br)cc1Br (centres undefined),0.257
19,COc1cc(CC(=O)NCc2ccc3c(c2)OCO3)cc(OC)c1OC,-0.0634
20,O=C(Cc1ccc(Cl)cc1)NN1C(=O)c2ccccc2C1=O,-1.37
21,COc1cccc(C(=O)NCCC2=CCCCC2)c1OC,0.291
22,CCN1CCN(C(=O)c2ccccc2N(C)S(=O)(=O)c2ccc(C)cc2)CC1,0.202

row,SMILES,z-score
1,C=CCN(CC=C)Cc1ccc(C(=O)OC)o1,-0.396
2,Cc1ccc(CNC(=O)COC(=O)CSc2cc(C)c(Br)cc2C)cc1,0.22
3,COc1cccc(C(=O)Nc2ccc(NC(=O)c3ccco3)cn2)c1,-0.787
4,CCOC(=O)c1c(C)nc(-c2ccccc2)nc1N,-0.442
5,O=C(CSc1ncn[nH]1)NN(c1ccccc1)c1ccccc1,0.138
6,CCN1N=C(c2ccccc2)Cn2c1nc1ccccc12,-0.288
7,COc1cc(S(=O)(=O)N(C)C)ccc1Br,-0.2
8,CN(c1cccc(NC(=O)CN2C(=O)c3ccccc3S2(=O)=O)c1)S(C)(=O)=O,0.157
9,COc1ccc(NC(=O)C(=O)NCCN2CCN(C(=O)c3cccs3)CC2)cc1,0.167
10,COCC(=O)N(Cc1cc2cc(OC)ccc2[nH]c1=O)c1ccc(C)cc1,-0.128
11,COc1cc(C(=O)OC(C)C(=O)N2CCc3ccccc3C2)ccc1OCC(=O)N1CCOCC1 (centres undefined),-0.0641
12,COc1cc(CCC(=O)OCc2nnc(-c3ccccc3)o2)cc(OC)c1OC,-0.336
13,COC(=O)Nc1ccc(S(=O)(=O)N2CCN(CCN3C(=O)C4C5C=CC(C5)C4C3=O)CC2)cc1 (centres undefined),0.0738
14,CC1(C)CC(=O)C=C(NCCN2CCNCC2)C1,0.258
15,COc1ccc(NC(=O)CN(C)S(=O)(=O)c2ccccc2)cc1,-0.772
16,O=C(/C=C/c1ccc2c(c1)OCO2)N1CCOCC1,-0.166
17,COc1ccc(NC(=O)CSc2nncn2C)cc1OC,0.24
18,CCNS(=O)(=O)c1ccc(NC(=O)c2ccccc2)cc1,-0.171
19,O=C(Nc1ccccc1N1CCN(C(=O)c2ccccc2)CC1)c1cc(Br)ccc1Cl,-0.569
20,C=CCSc1nc2ccccc2c2nc(-c3ccccc3)nn12,-0.206
21,Cc1ccc2nc(SC(C(=O)Nc3ccc(F)cc3)c3ccccc3)[nH]c2c1 (centres undefined),-0.117
22,COc1ccc(NC(=O)CN(C)S(=O)(=O)c2ccc3c(c2)CCC(=O)N3)c(OC)c1,-0.0695

row,SMILES,z-score
1,COc1ccc(N(CC(=O)N/N=C/c2cccs2)S(=O)(=O)c2ccc(OC)c(OC)c2)cc1,-0.073
2,Cc1c(NC2=NC3(CCCCC3)Cc3ccccc32)c(=O)n(-c2ccccc2)n1C,0.474
3,CCc1ccc(-c2cc(C(=O)Nn3cnnc3)c3ccccc3n2)cc1,-0.0711
4,COc1ccc(/C=C2\SC(=O)N(CCNC(=O)Cn3cnnn3)C2=O)cc1,0.0317
5,Cc1cccc(OC2(c3ccccc3)OC(=O)c3ccccc32)c1C (centres undefined),-0.468
6,CCCn1c(C)cc(/C=C(\C#N)C(=O)OCC(=O)Nc2ccc(OC)c(Cl)c2)c1C,-0.243
7,CC1(C)Cc2nc3sc4c(SCC(=O)NCc5ccccc5)ncnc4c3cc2CO1,2.31
8,CC1(CC(=O)N/N=C/c2ccc(OCc3ccc(Cl)cc3Cl)cc2)OCCCO1,0.0317
9,CC(C)NS(=O)(=O)c1ccc(OCC(N)=O)c(Cl)c1,-0.364
10,CCOc1c(S(=O)(=O)N2CCCC2)ccc(Cl)c1Cl,-0.567
11,CCOc1ccccc1NC(=O)C1CCN(S(=O)(=O)c2c(C)noc2C)CC1,-0.307
12,COc1ccc(CCNC(=O)c2cc3sc(Cl)cc3n2C)cc1OC,-0.316
13,Cc1ccc(C)c(N2CCN(C(=O)C(Cc3ccccc3)n3cccc3)CC2)c1 (centres undefined),0.715
14,C/C(=N\NC(=O)CCc1c[nH]c2ccccc12)c1ccc([N+](=O)[O-])cc1,-0.582
15,COc1ccc(NC(=O)C(c2ccc(C)cc2)N(C)C(=O)c2ccc(=O)[nH]c2)cc1 (centres undefined),-0.176
16,Cc1nc(SCC(=O)NC(C)(C)C)c2c(-c3cccs3)csc2n1,0.0419
17,CC(=O)C1C(c2cccc(Oc3ccccc3)c2)NC(=O)NC1(O)C(F)(F)F (centres undefined),0.0929
18,O=C(Cn1cnc2ccccc2c1=O)OCCCCN1C(=O)c2ccccc2C1=O,0.319
19,CSc1nnc2n(CCc3ccccc3)c(=O)c3c4c(sc3n12)CCCC4,0.0292
20,COCc1cc(C)nc(SCC(=O)c2ccc(O)c(O)c2)c1C#N,-0.257
21,CC1(C)N=C(N)N=C(N)N1c1ccccc1,0.0157
